The supplement of paper PMC12217912
This is one part of the list. Sequences were assembled here from the parent chain. Values near 0.05 are background.

B1: TEV protease; numbered along this chain (parent)
chain: MGESLFKGPRDYNPISSSICHLTNESDGHTTSLYGIGFGPFIITNKHLFRRNNGTLVVQSLHGVFKVKDTTTLQQHLVDGRDMIIIRMPKDFPPFPQKLKFREPQREERICLVTTNFQTKSMSSMVSDTSCTFPSGDGIFWKHWIQTKDGQCGSPLVSTRDGFIVGIHSASNFTNTNNYFTSVPKNFMELLTNQEAQQWVSGWRLNADSVLWGGHKVFMVKPEEPFQPVKEATQL

Variants of: B1
Test: raw area under fraction-flipped curve 0-4 h after induction (AUC4h, not background-subtracted), DNA-recorder readout of cleavage of the substrate (dimensionless); higher = more cleavage of the substrate by the protease variant
Settings: temperature: 34 °C; time window: 0-4 h after rhamnose induction
Method: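 In vivo DNA recorder in E. coli TOP10(DE3) ΔrhaA at 34 °C. Each TEVp single-site mutant (parent TEVp 0) is paired with a single-site variant of the 7-mer TEVs (canonical ENLYFQ|S). The substrate sits between flexible linkers in a Bxb1-sfGFP-TEVs-SsrA fusion, so cleavage stabilises Bxb1 and speeds flipping of a recombination array, read by NGS. The value is the raw area under the fraction-flipped curve over 0-4 h after rhamnose induction (AUC4h), with ≥20 reads per time point. It is not background-subtracted; inactive controls average about 0.047.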
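Further: Bxb1 expression induced with 0.2% (w/v) L-rhamnose at OD600 near 0.5, cultures sampled hourly, flipped fraction per protease–substrate barcode pair counted by paired-end Illumina sequencing.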

Variant	area with substrate ENLYFAS	area with substrate ENLYFCS	area with substrate ENLYFDS	area with substrate ENLYFES	area with substrate ENLYFGS	area with substrate ENLYFKS	area with substrate ENLYFMS	area with substrate ENLYFPS	area with substrate ENLYFRS	area with substrate ENLYFSS	area with substrate ENLYFTS	area with substrate ENLYFYS	area with substrate ENLYFFS	area with substrate ENLYFIS	area with substrate ENLYFNS	area with substrate ENLYFWS	area with substrate ENLYFHS	area with substrate ENLYFLS	area with substrate ENLYFVS
MGESLFKGPRDYNPISSSICHLTNESDGHTTSLYGIGFGPFIITNKHLFRRNNGTLVVQSLHGVFKVKDTTTLQQHLVDGRDMIIIRMPKDFPPFPQKLKFREPQREERICLVTTNFQTKSMSSMVSDTSCTFPSGDGIFWKHWIQTKDGQCGSPLVSTRDGFIVGIHSASNFTNTNNYFTSVPKNFMELLANQEAQQWVSGWRLNADSVLWGGHKVFMVKPEEPFQPVKEATQL [T192A]	0.0571	0.0613	0.0377	0.0549	0.0586	0.0513	0.0644	0.0726	0.0581	0.0487	0.0699	0.0672	–	–	–	–	–	–	–
MGESLFKGPRDYNPISSSICHLTNESDGHTTSLYGIGFGPFIITNKHLFRRNNGTLVVQSLHGVFKVKDTTTLQQHLVDGRDMIIIRMPKDFPPFPQKLKFREPQREERICLVTTNFQTKSMSSMVSDTSCTFPSGDGIFWKHWIQTKDGQCGSPLVSTRDGFIVGIHSASNFTNTNNYFTSVPKNFMELLFNQEAQQWVSGWRLNADSVLWGGHKVFMVKPEEPFQPVKEATQL [T192F]	0.047	0.0671	0.0492	0.0589	0.0572	0.0546	0.0689	0.057	–	0.0542	0.0663	–	0.0549	0.0609	0.0566	0.0683	–	–	–
MGESLFKGPRDYNPISSSICHLTNESDGHTTSLYGIGFGPFIITNKHLFRRNNGTLVVQSLHGVFKVKDTTTLQQHLVDGRDMIIIRMPKDFPPFPQKLKFREPQREERICLVTTNFQTKSMSSMVSDTSCTFPSGDGIFWKHWIQTKDGQCGSPLVSTRDGFIVGIHSASNFTNTNNYFTSVPKNFMELLTNTEAQQWVSGWRLNADSVLWGGHKVFMVKPEEPFQPVKEATQL [Q194T]	0.0609	–	–	–	–	0.0395	0.0693	–	0.0646	–	0.0638	–	0.0727	0.0622	0.0578	–	0.0526	0.0703	0.0845
MGESLFKGPRDYNPISSSICHLTNESDGHTTSLYGIGFGPFIITNKHLFRRNNGTLVVQSLHGVFKVKDTTTLQQHLVDGRDMIIIRMPKDFPPFPQKLKFREPQREERICLVTTNFQTKSMSSMVSDTSCTFPSGDGIFWKHWIQTKDGQCGSPLVSTRDGFIVGIHSASNFTNTNNYFTSVPKNFMELLTNQEAQQWVSYWRLNADSVLWGGHKVFMVKPEEPFQPVKEATQL [G202Y]	0.063	0.0444	–	0.0647	0.0508	0.118	0.064	–	–	0.0386	0.0731	0.0724	0.0749	0.0523	0.0542	0.0641	0.0578	–	0.0409
MGESLFKGPRDYNPISSSICHLTNESDGHTTSLYGIGFGPFIITNKHLFRRNNGTLVVQSLHGVFKVKDTTTLQQHLVDGRDMIIIRMPKDFPPFPQKLKFREPQREERICLVTTNFQTKSMSSMVSDTSCTFPSGDGIFWKHWIQTKDGQCGSPLVSTRDGFIVGIHSASNFTNTNNYFTSVPKNFMELLTNQEAQQWVSHWRLNADSVLWGGHKVFMVKPEEPFQPVKEATQL [G202H]	0.0602	–	–	0.0586	0.0652	0.0535	0.0645	0.0549	–	0.0553	0.0719	–	0.0461	0.0572	0.0595	–	0.0521	–	–
MGESLFKGPRDYNPISSSICHLTNESDGHTTSLYGIGFGPFIITNKHLFRRNNGTLVVQSLHGVFKVKDTTTLQQHLVDGRDMIIIRMPKDFPPFPQKLKFREPQREERICLVTTNFQTKSMSSMVSDTSCTFPSGDGIFWKHWIQTKDGQCGSPLVSTRDGFIVGIHSASNFTNTNNYFTSVPKNFMELDTNQEAQQWVSGWRLNADSVLWGGHKVFMVKPEEPFQPVKEATQL [L191D]	0.0644	–	–	–	–	–	–	0.049	0.0515	–	0.0538	0.0475	0.0875	0.0543	0.0571	0.0414	–	0.0634	0.0679
MGESLFKGPRDYNPISSSICHLTNESDGHTTSLYGIGFGPFIITNKHLFRRNNGTLVVQSLHGVFKVKDTTTLQQHLVDGRDMIIIRMPKDFPPFPQKLKFREPQREERICLVTTNFQTKSMSSMVSDTSCTFPSGDGIFWKHWIQTKDGQCGSPLVSTRDGFIVGIHSASNFTNTNNYFTSVPKNFMELGTNQEAQQWVSGWRLNADSVLWGGHKVFMVKPEEPFQPVKEATQL [L191G]	0.0531	–	0.0538	0.0557	–	–	0.0562	0.0225	0.0454	0.0447	0.0486	0.042	–	0.0506	0.0757	0.0632	0.0602	–	–
MGESLFKGPRDYNPISSSICHLTNESDGHTTSLYGIGFGPFIITNKHLFRRNNGTLVVQSLHGVFKVKDTTTLQQHLVDGRDMIIIRMPKDFPPFPQKLKFREPQREERICLVTTNFQTKSMSSMVSDTSCTFPSGDGIFWKHWIQTKDGQCGSPLVSTRDGFIVGIHSASNFTNTNNYFTSVPKNFMEHLTNQEAQQWVSGWRLNADSVLWGGHKVFMVKPEEPFQPVKEATQL [L190H]	0.066	–	0.0573	0.061	–	–	0.0686	0.0646	0.055	0.0513	0.0609	–	0.0652	0.0443	0.0471	–	0.0521	0.0612	0.0622
MGESLFKGPRDYNPISSSICHLTNESDGHTTSLYGIGFGPFIITNKHLFRRNNGTLVVQSLHGVFKVKDTTTLQQHLVDGRDMIIIRMPKDFPPFPQKLKFREPQREERICLVTTNFQTKSMSSMVSDTSCTFPSGDGIFWKHWIQTKDGQCGSPLVSTRDGFIVGIHSASNFTNTNNYFTSVPKNFMELLTNQEEQQWVSGWRLNADSVLWGGHKVFMVKPEEPFQPVKEATQL [A196E]	0.0612	0.0651	–	0.0596	0.0607	0.0638	0.0663	0.0568	0.0634	–	0.0597	0.0605	0.0703	0.0534	–	0.0596	0.0488	–	0.0506
MGESLFKGPRDYNPISSSICHLTNESDGHTTSLYGIGFGPFIITNKHLFRRNNGTLVVQSLHGVFKVKDTTTLQQHLVDGRDMIIIRMPKDFPPFPQKLKFREPQREERICLVTTNFQTKSMSSMVSDTSCTFPSGDGIFWKHWIQTKDGQCGSPLVSTRDGFIVGIHSASNFTNTNNYFTSVPKNFMELLTNQEKQQWVSGWRLNADSVLWGGHKVFMVKPEEPFQPVKEATQL [A196K]	0.0597	–	0.0838	0.0601	0.0606	0.0663	0.0688	0.0637	0.0573	0.0638	0.0601	0.0595	0.0729	0.0627	0.0676	0.0762	0.0607	0.055	–
